The supplement of paper PMC12217912
Some of the results follow. The full chains were built here from the parent and the listed change. Values near 0.05 are background.

B1: TEV protease; numbered along this chain (parent)
chain: MGESLFKGPRDYNPISSSICHLTNESDGHTTSLYGIGFGPFIITNKHLFRRNNGTLVVQSLHGVFKVKDTTTLQQHLVDGRDMIIIRMPKDFPPFPQKLKFREPQREERICLVTTNFQTKSMSSMVSDTSCTFPSGDGIFWKHWIQTKDGQCGSPLVSTRDGFIVGIHSASNFTNTNNYFTSVPKNFMELLTNQEAQQWVSGWRLNADSVLWGGHKVFMVKPEEPFQPVKEATQL

Variants of: B1
Experiment: raw area under fraction-flipped curve 0-4 h after induction (AUC4h, not background-subtracted), DNA-recorder readout of cleavage of the substrate (dimensionless); higher = more cleavage of the substrate by the protease variant
Conditions: temperature: 34 °C; time window: 0-4 h after rhamnose induction
Description: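 In vivo DNA recorder in E. coli TOP10(DE3) ΔrhaA at 34 °C. Each TEVp single-site mutant (parent TEVp 0) is paired with a single-site variant of the 7-mer TEVs (canonical ENLYFQ|S). The substrate sits between flexible linkers in a Bxb1-sfGFP-TEVs-SsrA fusion, so cleavage stabilises Bxb1 and speeds flipping of a recombination array, read by NGS. The value is the raw area under the fraction-flipped curve over 0-4 h after rhamnose induction (AUC4h), with ≥20 reads per time point. It is not background-subtracted; inactive controls average about 0.047.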
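Note: Bxb1 expression induced with 0.2% (w/v) L-rhamnose at OD600 near 0.5, cultures sampled hourly, flipped fraction per protease–substrate barcode pair counted by paired-end Illumina sequencing.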

Row | Variant | area with substrate EALYFQS | area with substrate ECLYFQS | area with substrate EDLYFQS | area with substrate EELYFQS | area with substrate EKLYFQS | area with substrate EMLYFQS | area with substrate EQLYFQS | area with substrate ETLYFQS | area with substrate EYLYFQS | area with substrate EHLYFQS | area with substrate EILYFQS | area with substrate ELLYFQS | area with substrate ERLYFQS | area with substrate ESLYFQS | area with substrate EVLYFQS | area with substrate EWLYFQS | area with substrate EGLYFQS | area with substrate EPLYFQS | area with substrate EFLYFQS
1 | MGESLFKGPRDYNPISSSICHLTNESDGHTTSLYGIGFGPFIITNKHLFRRNNGTLVVQSLHGVFKVKDTTTLQQHLVDGRDMIIIRMPKDFPPFPQKLKFREPQREERICLVTTNFQTKSMSSMVSDTSCTFPSGDGIFWKHLIQTKDGQCGSPLVSTRDGFIVGIHSASNFTNTNNYFTSVPKNFMELLTNQEAQQWVSGWRLNADSVLWGGHKVFMVKPEEPFQPVKEATQL [W144L] | 0.1 | 0.108 | 0.0894 | 0.112 | 0.0823 | 0.0888 | 0.104 | 0.104 | 0.0977 | – | – | – | – | – | – | – | – | – | –
2 | MGESLFKGPRDYNPISSSICHLTNESDGHTTSLYGIGFGPFIITNKHLFRRNNGTLVVQSLHGVFKVKDTTTLQQHLVDGRDMIIIRMPKDFPPFPQKLKFREPQREERICLVTTNFQTKSMSSMVSDTSCTFPSGDGIFWKHQIQTKDGQCGSPLVSTRDGFIVGIHSASNFTNTNNYFTSVPKNFMELLTNQEAQQWVSGWRLNADSVLWGGHKVFMVKPEEPFQPVKEATQL [W144Q] | 0.084 | 0.0906 | 0.0916 | 0.102 | – | 0.0808 | 0.0894 | – | 0.073 | 0.0941 | 0.0862 | 0.0893 | 0.0629 | 0.0802 | 0.0791 | 0.0752 | – | – | –
3 | MGESLFKGPRDYNPISSSICHLTNESDGHTTSLYGIGFGPFIITNKHLFRRNNGTLVVQSLHGVFKVKDTTTLQQHLVDGRDMIIIRMPKDFPPFPQKLKFREPQREERICLVTTNFQTKSMSSMVSDTSCTFPSGDGQFWKHWIQTKDGQCGSPLVSTRDGFIVGIHSASNFTNTNNYFTSVPKNFMELLTNQEAQQWVSGWRLNADSVLWGGHKVFMVKPEEPFQPVKEATQL [I139Q] | 0.145 | 0.0645 | – | 0.123 | – | – | 0.134 | – | – | – | 0.091 | – | – | 0.11 | – | 0.0931 | 0.0943 | – | –
4 | MGESLFKGPRDYNPISSSICHLTNESDGHTTSLYGIGFGPFIITNKHLFRRNNGTLVVQSLHGVFKVKDTTTLQQHLVDGRDMIIIRMPKDFPPFPQKLKFREPQREERICLVTTNFQTKSMSSMVSDTSCTFLSGDGIFWKHWIQTKDGQCGSPLVSTRDGFIVGIHSASNFTNTNNYFTSVPKNFMELLTNQEAQQWVSGWRLNADSVLWGGHKVFMVKPEEPFQPVKEATQL [P134L] | 0.0963 | 0.0505 | 0.0718 | – | – | 0.0573 | 0.083 | – | 0.106 | – | 0.0885 | – | – | 0.0603 | 0.118 | 0.0898 | – | 0.0918 | –
5 | MGESLFKGPRDYNPISSSICHLTNESDGHTTSLYGIGFGPFIITNKHLFRRNNGTLVVQSLHGVFKVKDTTTLQQHLVDGRDMIIIRMPKDFPPFPQKLKFREPQREERICLVTTNFQTKSMSSMVSDTSCTFPIGDGIFWKHWIQTKDGQCGSPLVSTRDGFIVGIHSASNFTNTNNYFTSVPKNFMELLTNQEAQQWVSGWRLNADSVLWGGHKVFMVKPEEPFQPVKEATQL [S135I] | 0.0629 | 0.0721 | 0.128 | 0.0738 | 0.05 | 0.0686 | 0.0641 | – | 0.0638 | 0.0693 | 0.0512 | – | 0.0656 | 0.0582 | 0.0711 | – | 0.0771 | – | 0.0792
6 | MGESLFKGPRDYNPISSSICHLTNESDGHTTSLYGIGFGPFIITNKHLFRRNNGTLVVQSLHGVFKVKDTTTLQQHLVDGRDMIIIRMPKDFPPFPQKLKFREPQREERICLVTTNFQTKSMSSMVSDTSCTFPDGDGIFWKHWIQTKDGQCGSPLVSTRDGFIVGIHSASNFTNTNNYFTSVPKNFMELLTNQEAQQWVSGWRLNADSVLWGGHKVFMVKPEEPFQPVKEATQL [S135D] | 0.116 | 0.0757 | – | 0.144 | – | 0.126 | 0.111 | – | 0.108 | – | 0.0842 | 0.0995 | – | 0.0981 | 0.0917 | 0.0856 | 0.0843 | 0.106 | –
7 | MGESLFKGPRDYNPISSSICHLTNESDGHTTSLYGIGFGPFIITNKHLFRRNNGTLVVQSLHGVFKVKDTTTLQQHLVDGRDMIIIRMPKDFPPFPQKLKFREPQREERICLVTTNFQTKSMSSMVSDTSCTFPSGDGIMWKHWIQTKDGQCGSPLVSTRDGFIVGIHSASNFTNTNNYFTSVPKNFMELLTNQEAQQWVSGWRLNADSVLWGGHKVFMVKPEEPFQPVKEATQL [F140M] | 0.0892 | 0.0844 | 0.114 | – | 0.0667 | – | – | 0.0795 | 0.0627 | – | 0.0717 | 0.0759 | 0.061 | 0.0733 | – | – | – | – | –
8 | MGESLFKGPRDYNPISSSICHLTNESDGHTTSLYGIGFGPFIITNKHLFRRNNGTLVVQSLHGVFKVKDTTTLQQHLVDGRDMIIIRMPKDFPPFPQKLKFREPQREERICLVTTNFQTKSMSSMVSDTSCTFPSGDGIIWKHWIQTKDGQCGSPLVSTRDGFIVGIHSASNFTNTNNYFTSVPKNFMELLTNQEAQQWVSGWRLNADSVLWGGHKVFMVKPEEPFQPVKEATQL [F140I] | 0.0599 | 0.0808 | 0.0684 | – | 0.0655 | 0.0785 | 0.0598 | – | – | – | 0.0655 | 0.0599 | 0.0655 | 0.056 | 0.0653 | – | – | 0.056 | –
9 | MGESLFKGPRDYNPISSSICHLTNESDGHTTSLYGIGFGPFIITNKHLFRRNNGTLVVQSLHGVFKVKDTTTLQQHLVDGRDMIIIRMPKDFPPFPQKLKFREPQREERICLVTTNFQTKSMSSMVSDTSCTFPSGDGIPWKHWIQTKDGQCGSPLVSTRDGFIVGIHSASNFTNTNNYFTSVPKNFMELLTNQEAQQWVSGWRLNADSVLWGGHKVFMVKPEEPFQPVKEATQL [F140P] | 0.0496 | 0.0542 | 0.0616 | 0.0611 | 0.0711 | 0.0764 | 0.0638 | – | – | 0.0645 | 0.06 | 0.0587 | 0.0602 | 0.0744 | 0.0698 | 0.0763 | 0.057 | 0.0558 | 0.0577
10 | MGESLFKGPRDYNPISSSICHLTNESDGHTTSLYGIGFGPFIITNKHLFRRNNGTLVVQSLHGVFKVKDTTTLQQHLVDGRDMIIIRMPKDFPPFPQKLKFREPQREERICLVTTNFQTKSMSSMVSDTSCTFPSPDGIFWKHWIQTKDGQCGSPLVSTRDGFIVGIHSASNFTNTNNYFTSVPKNFMELLTNQEAQQWVSGWRLNADSVLWGGHKVFMVKPEEPFQPVKEATQL [G136P] | 0.0731 | 0.0621 | – | 0.0699 | 0.0746 | 0.0705 | 0.0896 | – | 0.0665 | 0.0768 | 0.0681 | – | – | 0.072 | 0.0571 | – | – | 0.0721 | –
